Among the data in PubChem BioAssay AID488969 (Vanderbilt High Throughput Screening Facility, 2010) are z-score values, retold here.

SMILES strings stand for the structures. The full ranking holds about 110,000 compounds; the median of “z-score” is about -0.1, and the highest 2% start at about 2. The list shows a part of the results. Activity calls are given as the source filed them.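 How the source made its calls: active means z-score in the third read window above 3 or below -3; inactive means the rest.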

For this test, the target named is Metabotropic glutamate receptor 8 (Rattus norvegicus) (UniProt P70579). Briefly: rat mGluR8 modulators via GIRK flux, primary screen, cell-based, thallium flux, HTS (AID 488969). The conditions noted are these: HEK293 rat mGluR8, GIRK (G protein-gated inwardly rectifying potassium channel) thallium flux, FluoZin2; at 10 µM; stronger effect = higher value; submaximal glutamate (EC20) added with thallium.
Sequence of UniProt P70579 (P70579 whole entry, looked up): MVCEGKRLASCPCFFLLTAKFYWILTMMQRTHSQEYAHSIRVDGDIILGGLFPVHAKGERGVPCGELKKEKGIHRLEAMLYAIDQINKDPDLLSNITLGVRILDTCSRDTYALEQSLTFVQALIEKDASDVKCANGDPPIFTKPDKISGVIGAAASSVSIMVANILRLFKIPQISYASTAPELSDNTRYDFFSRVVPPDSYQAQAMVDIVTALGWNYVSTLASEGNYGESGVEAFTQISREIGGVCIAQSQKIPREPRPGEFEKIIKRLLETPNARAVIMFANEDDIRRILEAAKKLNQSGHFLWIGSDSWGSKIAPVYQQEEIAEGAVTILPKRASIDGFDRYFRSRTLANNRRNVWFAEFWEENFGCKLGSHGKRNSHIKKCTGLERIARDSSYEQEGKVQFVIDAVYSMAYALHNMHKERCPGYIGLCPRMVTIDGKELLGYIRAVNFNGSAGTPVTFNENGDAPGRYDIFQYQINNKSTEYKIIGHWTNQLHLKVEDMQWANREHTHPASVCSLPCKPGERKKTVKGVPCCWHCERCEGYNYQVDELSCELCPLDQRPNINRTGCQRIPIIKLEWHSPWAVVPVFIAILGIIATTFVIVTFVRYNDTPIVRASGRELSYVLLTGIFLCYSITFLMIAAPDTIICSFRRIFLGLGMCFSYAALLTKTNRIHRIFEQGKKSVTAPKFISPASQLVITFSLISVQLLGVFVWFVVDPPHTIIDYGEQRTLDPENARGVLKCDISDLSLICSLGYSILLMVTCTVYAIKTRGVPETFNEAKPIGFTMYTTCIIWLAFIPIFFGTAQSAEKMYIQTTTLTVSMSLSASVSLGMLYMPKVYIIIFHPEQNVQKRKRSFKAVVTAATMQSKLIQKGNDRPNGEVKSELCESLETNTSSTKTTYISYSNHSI
For `CCOc1ccc(C2N(c3ccc(Cl)cc3)C(=O)C3CCCN32)cc1OC` (stereo not given), the z-score was determined as 0.00447.
The same measure for `COc1cc(C(=O)N/N=C(\c2ccccc2)c2ccccn2)cc(OC)c1OC`: -0.945; for `COc1ccc2nc(N=Nc3ccc(O)c4ccccc34)sc2c1`: active: 5.85.
The same measure for `O=C(c1ccccc1F)N1CCN=C1SCc1cccnc1`: 0.643; for `COc1ccc(NC(=O)c2onc(C)c2Cl)cc1OC`: 0.0673; for `CCOC(=O)COc1ccccc1/C=C\[N+](=O)[O-]`: 0.0266.
As to `COc1ccc(CCNC(=O)c2cc(-c3ccccc3O)n[nH]2)cc1OC`, the z-score was 0.21.
Regarding `CCC(C)NC(=O)c1cnn2c1NC(c1cccs1)CC2C(F)(F)F` (stereo not given), the z-score is -0.275.
The same measure for `Cc1cccc(-n2cc(-c3ccc([N+](=O)[O-])cc3)[nH]c2=S)c1`: 0.401; for `COCC(C)n1c(C)cc(C(=O)COC(=O)c2ccc3ncsc3c2)c1C` (stereo not given): 0.781; for `Cc1cccc(C)c1NC(=O)CN1CCNCC1`: -0.129.
In the case of `CCCN1C(=O)SC(CC(=O)Nc2ccc(C)cc2)C1=O` (stereo not given), the z-score is -0.133.
As for `Cc1oc2nc(SCC(=O)NCc3cccnc3)nc(N)c2c1C`, the z-score is -0.19.
In the case of `CC1=C(C(=O)Nc2ccccc2F)C(c2ccsc2)C2=C(CC(c3ccccc3)CC2=O)N1` (stereo not given), the z-score is -0.668.
The same measure for `Cc1ccccc1C(=O)NCCN=C1NS(=O)(=O)c2ccccc21`: 0.074; for `Cc1cc(NC(=O)c2cccc(S(=O)(=O)N3CCOCC3)c2)no1`: 0.48; for `CCOC(=O)/C(=C\c1ccccc1)C(=O)c1cc(C(C)=O)c(Nc2ccccc2)s1`: 0.101.
The result for `CCn1c(CNC(=O)c2cccc(C)c2)nnc1SCC(=O)Nc1cccc(OC)c1` reads -0.317; that for `CCOc1ccc(OCCOc2cccc(C(F)(F)F)c2)cc1`, 0.0766.
On to `CCOP(=O)(c1ccc(N(C)C)cc1)C(O)c1ccccc1` (stereo not given), for which the z-score was -0.244.
The same measure for `CCOC(=O)C1=C(C)N=C2c3ccccc3C(=O)C2C1c1ccc(C)cc1` (stereo not given): -0.307; for `COc1ccc(-n2nnnc2SCC(=O)Nc2ccccc2)cc1`: 0.0622.
`COC(=O)C1=C(C)NC(=O)/C1=C\c1cccs1`: the z-score is -0.512.
For the compound `COc1ccc(NC(=O)C2CCCN(S(=O)(=O)c3cccc4cccnc34)C2)cc1` (stereo not given), the z-score turned out to be 0.0102.
The result for `O=C(NCc1cccs1)C1CC(=O)N(c2ccccc2)C1` (stereo not given) reads -0.0578; that for `CC1(C)CC(=O)c2cnc(NCC3CCCO3)nc2C1` (stereo not given), 0.214.
The same measure for `O=C(CN1CCN(c2nc(-c3ccc(F)cc3)cs2)CC1)NCc1ccc2c(c1)OCO2`: 0.0308.
Regarding `COCCOC(=O)c1[nH]c2c(c1C)C(=O)CC(c1ccc(N(C)C)cc1)C2` (stereo not given), the z-score is 0.0502.
The result for `COc1ccc(N2C(=O)CCC(C(=O)N3CCCCCC3)C2c2ccc(OC)c(OC)c2)cc1` (stereo not given) reads 0.685; that for `CCOC(=O)c1cccnc1SCc1cc(=O)n2ccccc2n1`, -0.211; that for `CC(C)N1C(=O)CC(Nc2ccc(N3CCOCC3)cc2)C1=O` (stereo not given), 0.261.
The result for `COc1ccc(OC)c(/C=C(\NC(=O)c2ccccc2)C(=O)N/N=C/c2ccc(C)s2)c1` reads -0.239.
The same measure for `Cc1cccc(C(=O)NCCc2csc(C)n2)c1`: -0.0815.
Regarding `O=C(NCc1ccccc1F)c1ccc2c(c1)OCO2`, the z-score was 0.15.
The result for `COc1ccc(S(=O)(=O)N(CC(=O)N2CCOCC2)Cc2ccccc2)cc1C` reads -0.504; that for `COc1cccc(C2CC(c3ccccc3)n3ncnc3N2)c1` (stereo not given), 0.237.
The result for `COCCN(CC(=O)NCC1CCCO1)C(=O)CCC(=O)Nc1cc(C)ccn1` (stereo not given) reads 0.675.
`O=C(COC(=O)c1ccccc1)Nc1ccccc1N1CCOCC1`: the z-score stood at 0.114.
The same measure for `O=C(COC(=O)Cc1ccsc1)NC1CCCCCC1`: 0.353; for `CC(=O)c1nn(-c2cccc(Br)c2)cc1C(=O)c1ccccc1`: -0.259; for `COc1ccccc1C1=NN(C(=S)Nc2ccccc2)C(c2ccco2)C1` (stereo not given): -0.27.
The result for `Cc1c(C(=O)NC2CCCc3ccccc32)oc2ccccc12` (stereo not given) reads -0.0744; that for `O=C(Cc1cccs1)N/N=C/c1ccc(OCc2ccccc2)cc1`, 0.365.
For the compound `CCOc1ccccc1NC(=O)c1c(Br)cnn1C`, the z-score was -0.0887.
The same measure for `ON1C(c2ccc(Cl)cc2Cl)N(O)[C@H]2CCCC[C@H]21` (stereo not given in full): 0.214.
The same measure for `O=C(/C=C/c1ccccc1)N/C(=C/c1ccccc1)C(=O)NCCO`: -0.124; for `CCc1nc(SCC(=O)N2CCN(c3ccccc3)CC2)c2oc3ccccc3c2n1`: -0.331.
The same measure for `Nc1c(C(=O)Nc2ccc3c(c2)OCCO3)nnn1CCc1ccccc1`: -0.72; for `Cc1[nH]c2ccc3ncccc3c2c1C`: 0.0252; for `O=C(Cc1ccccc1)NC(Nc1ccccc1)C(Cl)(Cl)Cl` (stereo not given): -0.189.
As to `O=C(Cn1c(NCCO)nc2ccccc21)c1ccco1`, the z-score was -0.133.
The same measure for `Cc1cccc(C)c1NC(=O)C1C2C=CC(C2)C1C(=O)NCc1ccccn1` (stereo not given): -0.206.
The same measure for `COc1ccc(OC)c(C2C3=C(CCCC3=O)Nc3nnnn32)c1` (stereo not given): -0.152; for `NC(=O)c1c(NC(=O)CN2CCOCC2)sc2c1CCC2`: 0.0462.
`C/C(=C\C(=O)c1ccccc1)Nc1ccc(Cl)c(Br)c1`: the z-score was -0.178.
Consider `CCC(C)Nc1nc2c(c(=O)[nH]c(=O)n2C)n1CCC(C)C` (stereo not given), for which the z-score is -0.271.
The same measure for `O=C(C1CCC1)N1CCc2cc(S(=O)(=O)NCc3ccccn3)ccc21`: 0.3; for `CN1CCN(C=NC2=NN(c3cccc(C(F)(F)F)c3)CC2)CC1`: -0.275; for `CC(=O)c1cc2c(cc1NC(=O)C1CC1)OCO2`: 1.2.
The result for `CC(NS(C)(=O)=O)C(c1cccs1)N1CCN(c2ccccc2)CC1` (stereo not given) reads -0.211.
As for `Cc1c(C)c2cc(Cl)c(O)c(CN3CCCC(C)C3)c2oc1=O` (stereo not given), the z-score was -0.783.
On to `CCN(CC)S(=O)(=O)c1ccc(O)c(C(=O)OCC(=O)N(C)Cc2ccccc2)c1`, for which the z-score was 0.101.
As to `COc1ccc(C(=O)Nc2ccccc2C(=O)NC(Cc2ccc(O)cc2)C(=O)NNC(=O)c2ccccc2)cc1` (stereo not given), the z-score was -0.0526.
The result for `COc1ccc(Cn2c(O)cc(=O)[nH]c2=O)cc1` reads 0.277; that for `N#CCN1CCN(CCC(=O)Nc2ccc(OCc3ccccc3)cc2)CC1`, 0.324; that for `Cc1[nH]ccc(=O)c1OCc1ccc(Cl)cc1`, -0.133.
The compound `CC(=O)N/C(=C\c1ccccc1)C(=O)OCC(=O)N1CCCCCC1` came in with a z-score of 0.062.
`O=S(=O)(Nc1ccc(N2CCOCC2)cc1)c1ccc2ccccc2c1` had a z-score of 0.236.
In the case of `O=C(Nc1cccc2ccccc12)/C(=C/c1ccc([N+](=O)[O-])cc1)NC(=O)c1ccccc1`, the z-score is 0.106.
Turning to `O=C(CS(=O)c1ccc(C(F)(F)F)cc1[N+](=O)[O-])Oc1ccc(Cl)cc1` (stereo not given), the z-score is 0.0797.
The same measure for `CC1Cc2ccccc2N1C(=O)CSc1nc2c(c(=O)n(C)c(=O)n2C)n1Cc1ccccc1` (stereo not given): -1.16; for `CCCn1c(=O)c2c(C(F)(F)F)cc(-c3cccs3)nc2n(CCC)c1=O`: -0.264; for `Cc1ccc(NS(=O)(=O)c2cc(NC(=O)c3cc4c(s3)CCCC4)ccc2C)c(C)c1`: -0.0232.
The result for `CCS(=O)(=O)C(=C1NCCO1)S(=O)(=O)CC` reads -0.145.
The result for `Cc1cc(N)n(-c2nc(-c3cccnc3)nc3ccccc23)n1` reads -0.496; that for `COc1ccccc1NS(=O)(=O)c1cccc(N=C2N=C(N)c3ccccc32)c1`, -0.673; that for `CC(C)(C)OC(=O)N1CCC[C@H]1c1nnc(SCc2c(F)cccc2Cl)o1`, 0.0657.
Take `CCOc1cc(/C=C2\N=C(C)OC2=O)cc(Br)c1OCC(=O)OC`: the z-score was -0.0313.
The same measure for `O=C(NCc1cccnc1)c1ccc(COc2ccccc2Br)o1`: -0.856.
The result for `Cc1ccc(N2C(=O)c3cccc4c(Oc5ccccc5[N+](=O)[O-])ccc(c34)C2=O)c(C)c1` reads 0.169; that for `CC1=NN(c2ccccc2)C(=O)C1(C)C`, -0.362; that for `O=C(NCc1ccccc1)C(Cc1ccccc1)NS(=O)(=O)c1cccc2nsnc12` (stereo not given), -0.095.
The same measure for `CCOc1ccc2nc(SC3CC(=O)N(c4ccc(C)cc4)C3=O)sc2c1` (stereo not given): 0.0229.
On to `COC(=O)c1c(-c2ccc(Br)cc2)csc1NC(=O)Cc1ccc(OC)c(OC)c1`, for which the z-score was -0.0487.
The same measure for `COc1ccc(C(=O)NNC(=O)Cc2ccc(-c3ccccc3)cc2)cc1OC`: 0.639.
As for `O=C(NCC1CCCO1)c1sc(=S)n2c1[nH]c(=O)c1ccc(C(=O)N3CCCCC3)cc12` (stereo not given), the z-score was -0.851.
In turn, `O=C(CCCn1c(=S)[nH]c2ccccc2c1=O)N1CCN(c2cccc(Cl)c2)CC1` yielded a z-score of 0.104.
Regarding `COC(=O)c1ccc(COc2ccccc2/C=C(\C#N)C(=O)NC(C)C)cc1`, the z-score is -0.308.
The result for `CCCCNC(=O)CCn1c(=O)c2ccccc2n(CC(=O)N2CC(C)CC(C)C2)c1=O` (stereo not given) reads -0.218; that for `Cc1cc(C)n(CC(O)Cn2c(C)c(C)c3ccccc32)n1` (stereo not given), 0.166.
The compound `CCN1CCN(C(=O)c2ccc(COc3ccc(Cl)cc3)o2)CC1` displayed a z-score of 0.356.
As to `Cc1ccn2c(NCc3ccc4c(c3)OCO4)c(-c3ccc(O)cc3)nc2c1`, the z-score was -0.00285.
The same measure for `CC1Cc2ccccc2N1c1nc(C2CC2)nc2c1nnn2Cc1ccccc1` (stereo not given): -0.314; for `C=CCN(C(=O)c1cccc(S(=O)(=O)N2CCN(C)CC2)c1)c1nc(-c2ccccc2)cs1`: -0.229; for `O=C(CSc1nnc(-c2ccncc2)n1Cc1ccco1)OC1CCCCC1`: -0.368.
The same measure for `Cc1ccc(C(=O)Nc2cccc(Oc3ccccc3)c2)o1`: -1.41; for `Cc1csc(NC(=O)CSc2ncn(-c3ccccc3)n2)n1`: -0.32; for `Cc1ccc(OCCn2cnc3c(N)ncnc32)cc1`: 0.645.
The result for `c1ccc(-c2noc(-c3cccnc3)n2)cc1` reads -0.191.
As to `CCOc1cc(N2CCOCC2)c(OCC)cc1NC(=O)Cc1cccc2ccccc12`, the z-score is -0.178.
For `Cc1ccccc1OCC(=O)NCCN(C)C`, the z-score is -0.273.
The same measure for `O=C1C2Sc3[nH]c(=O)sc3C(c3ccccc3)C2C(=O)N1c1ccccc1` (stereo not given): 0.0602; for `COc1ccc2c(c1)Cc1sc(NC(=O)c3ccco3)nc1-2`: 0.0215; for `COC(=O)c1ccc2nc(Nc3nc4c(F)cc(F)cc4s3)sc2c1`: 1.56.
The same measure for `COc1ccc(NC(=O)CC(NCCc2ccccc2)C(=O)O)c(OC)c1` (stereo not given): -0.56; for `COc1ccc(C(=O)Nc2ccc(Cl)cc2C(=O)NCc2ccco2)cc1`: -0.479; for `O=C1CC(=O)C(n2cncn2)C(c2ccc(Cl)cc2)C1` (stereo not given): 0.425.
The same measure for `Cc1cc(NC(=O)Cc2cn3ccsc3n2)n(-c2ccccc2)n1`: 0.609; for `O=C1N/C(=N\N=C\c2cccs2)SC1Cc1ccc(Cl)cc1` (stereo not given): -0.295; for `OC(COc1ccc2ccccc2c1Br)Cn1ccnc1` (stereo not given): 0.596.
